{"source": "PubChem BioAssay AID1645887", "about": "(National Center for Advancing Translational Sciences (NCATS), 2021)", "note": "“And” between values parts separate entries of the source, which are not always exact repeats. Equal values may be shown once. Hit rate of the full screen: of about 16,000 compounds, about 40 (0.2%) were called active. Roughly 1% stayed inconclusive and do not appear here. Calls come from the whole dose curve; as a rule, active = well fitted activation curve with a large enough effect; inconclusive = small, poorly fitted or top-dose-only effect, or another doubt; inactive = no such curve, though single readings can be large or run the other way. This is one part of the list. The source holds several records for some structures; these can differ, active in one and inactive in another. % is set by controls: 0 for no effect and ±100 for the full control effect; potency is the fitted concentration of half-maximal effect."}
{"target": "Rap guanine nucleotide exchange factor 4 (Homo sapiens) (UniProt Q8WZA2)", "sequence (Q8WZA2 whole entry, looked up)": "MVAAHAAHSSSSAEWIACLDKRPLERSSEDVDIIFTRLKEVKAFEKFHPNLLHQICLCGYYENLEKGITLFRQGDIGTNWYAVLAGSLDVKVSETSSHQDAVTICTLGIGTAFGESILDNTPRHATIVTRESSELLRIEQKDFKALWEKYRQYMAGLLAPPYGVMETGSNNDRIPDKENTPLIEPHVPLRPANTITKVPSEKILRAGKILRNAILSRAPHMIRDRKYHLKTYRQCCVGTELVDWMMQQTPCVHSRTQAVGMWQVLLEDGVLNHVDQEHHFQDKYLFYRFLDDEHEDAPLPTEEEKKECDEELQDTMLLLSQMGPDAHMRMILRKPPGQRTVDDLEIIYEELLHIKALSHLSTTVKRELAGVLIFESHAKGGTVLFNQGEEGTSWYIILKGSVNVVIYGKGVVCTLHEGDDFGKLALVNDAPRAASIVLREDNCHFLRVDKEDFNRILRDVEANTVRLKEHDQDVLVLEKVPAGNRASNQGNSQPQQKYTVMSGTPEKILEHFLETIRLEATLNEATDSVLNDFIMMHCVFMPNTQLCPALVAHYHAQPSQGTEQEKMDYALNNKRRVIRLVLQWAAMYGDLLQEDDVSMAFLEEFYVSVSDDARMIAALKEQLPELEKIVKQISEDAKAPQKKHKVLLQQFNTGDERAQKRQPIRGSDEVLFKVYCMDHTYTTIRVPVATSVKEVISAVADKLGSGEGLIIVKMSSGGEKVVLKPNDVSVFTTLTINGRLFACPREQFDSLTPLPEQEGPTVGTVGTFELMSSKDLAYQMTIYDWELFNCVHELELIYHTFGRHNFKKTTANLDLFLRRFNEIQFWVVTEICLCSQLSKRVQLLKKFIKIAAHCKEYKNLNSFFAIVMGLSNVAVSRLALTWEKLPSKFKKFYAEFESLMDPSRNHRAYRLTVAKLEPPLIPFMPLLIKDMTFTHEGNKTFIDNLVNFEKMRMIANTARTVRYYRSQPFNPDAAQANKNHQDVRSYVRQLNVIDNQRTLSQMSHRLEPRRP", "assay": "Validation qHTS for agonist of cAMP-regulated guanine nucleotide exchange factor 4 (EPAC2);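 for activation: exchange makes BODIPY-GDP fluorescence drop when released from Rap1B; series mostly up to about 150 µM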", "settings": "EPAC2 Rap1B BODIPY-GDP exchange, fluorescence; activation: hits give high values", "method_in_brief": "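Signal normalized against 6.5 mM cAMP as agonist control. Mix of EPAC2 (100 nM), RAP1B-BODIPY-GDP (250 nM) and GDP (50 uM) was read kinetically at 480/540 nm, every 5 min over 30 min, after 5 min room-temperature incubation with compound.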"}
{"molecule": "OC(O)C(Cl)(Cl)Cl", "activation": "inactive: -39.1%"}
{"molecule": "CNC(C)(C)Cc1ccccc1", "activation": "inactive: -4.59% and inactive: -10.7%"}
{"molecule": "CCOP(=S)(OCC)Oc1cc(C)nc(C(C)C)n1", "activation": "inactive: -15.5%"}
{"molecule": "CNC(Cc1c[nH]c2ccccc12)C(=O)O", "note": "(stereo not given)", "activation": "inactive: -10.9%"}
{"molecule": "CO[C@@H]1C[C@@H](C[C@H]2CC[C@H](C)[C@@H]([C@@H](C)C(=O)O)O2)O[C@]2(O[C@](C)([C@H]3CC[C@@](C)(C4OC([C@H]5O[C@@](O)(CO)[C@H](C)C[C@@H]5C)C[C@@H]4C)O3)C[C@H]2C)[C@@H]1C", "note": "(stereo not given in full)", "activation": "inactive: 0.405%"}
{"molecule": "COCC(=O)N(c1c(C)cccc1C)C(C)C(=O)OC", "note": "(stereo not given)", "activation": "inactive: -11.9%"}
{"molecule": "O=C(Nc1cccc(F)c1)N1CCCC2(CCN(C(=O)Oc3ccccc3)CC2)C1", "activation": "inactive: -6.89%"}
{"molecule": "c1ccc(CCN2CCCC2)cc1", "activation": "inactive: -16.7%"}
{"molecule": "O=C(O)CCCOc1ccc(Cl)cc1Cl", "activation": "inactive: 10.3% and inactive: -0.478%"}
{"molecule": "CC(N)(COP(=O)(O)Oc1ccccc1)C(=O)O", "note": "(stereo not given)", "activation": "inactive: -6.49%"}
{"molecule": "O=C(NC(=O)c1ccccc1Cl)Nc1ccc(OC(F)(F)F)cc1", "activation": "inactive: -9.02%"}
{"molecule": "NCC(CP(=O)(O)O)c1ccc(Cl)cc1", "note": "(stereo not given)", "activation": "inactive: -0.0836% and inactive: 5.67%"}
{"molecule": "N[C@@H](Cn1cc(I)c(=O)[nH]c1=O)C(=O)O", "activation": "inactive: -13.1%"}
{"molecule": "c1cnc(N2CCCC3(CCNCC3)C2)nc1", "activation": "inactive: -19%"}
{"molecule": "CCCCCc1cc(O)c2c(c1)OC(C)(C)[C@@H]1CCC(C)=C[C@@H]21", "activation": "inactive: -22%"}
{"molecule": "CN(C(=O)Cc1ccccc1)[C@H](CN1CCCC1)c1ccccc1", "activation": "inactive: 1.2% and inactive: 1.86%"}
{"molecule": "CCCCCCCCCCCCCCCC[n+]1ccccc1", "activation": "inactive: -32.2% and inactive: -9.68%"}
{"molecule": "C=C1C/C(=C/C)C(=O)O[C@@H]2CCN3CC=C(COC(=O)[C@]1(C)O)[C@@H]23", "activation": "inactive: -1.69%"}
{"molecule": "CC1(C)CC/C(=C/c2ccc(Cl)cc2)C1(O)Cn1cncn1", "note": "(stereo not given)", "activation": "inactive: -10.6%"}
{"molecule": "COc1ccc2c(c1OC)C(=O)O[C@H]2[C@@H]1c2cc3c(cc2CCN1C)OCO3", "activation": "inactive: -9.55% and inactive: -25.6%"}
{"molecule": "COC(=O)c1cc2c(cn1)[nH]c1ccccc12", "activation": "inactive: 15.7%"}
{"molecule": "CN[C@H]1C[C@@H](N)[C@H](O)[C@@H](O[C@@H]2O[C@H](CO)[C@H](O)[C@@H]3OC4(O[C@H]23)O[C@H](C(N)CO)[C@H](O)[C@H](O)[C@H]4O)[C@@H]1O", "note": "(stereo not given in full)", "activation": "inactive: -10.5% and inactive: 5.63%"}
{"molecule": "CC(C)(C)NC[C@@H](O)COc1cccc2[nH]c(C#N)cc12", "activation": "inactive: -22.8%"}
{"molecule": "COc1ccc(CCN)cc1O", "activation": "inactive: 1.85%"}
{"molecule": "C=C(C)C1Cc2c(ccc3c2OC2COc4cc(OC)c(OC)cc4C2C3=O)O1", "note": "(stereo not given)", "activation": "inactive: -25.1%"}
{"molecule": "CN[C@@]1(c2ccccc2Cl)CCCCC1=O", "activation": "inactive: -11.4%"}
{"molecule": "Clc1ccc(C2=CCC[C@H]3CC[C@@H]2N3)cn1", "activation": "inactive: -9.15%"}
{"molecule": "Oc1ccc2c3c1O[C@H]1c4[nH]c5ccccc5c4C[C@]4(O)[C@H](C2)N(CC2CC2)CC[C@@]314", "activation": "inactive: -9.97%"}
{"molecule": "c1ccc2cc(CC3=NCCN3)ccc2c1", "activation": "inactive: -13.8%"}
{"molecule": "COP(=S)(OC)Oc1ccc(Sc2ccc(OP(=S)(OC)OC)cc2)cc1", "activation": "inactive: 12%"}
{"molecule": "CCCCCCC(=O)CCCCCC/C=C/C[C@@H](O)[C@H](O)[C@@](N)(CO)C(=O)O", "activation": "inactive: -19.6% and inactive: -9.23%"}
{"molecule": "CCC(C)C(=O)OC1C(O)C2C(CN3CC(C)CCC3[C@]2(C)O)C2C[C@]34O[C@@]5(O)C(OC(=O)C(C)(O)C(C)O)CCC3(C)C5C(OC(C)=O)C(OC(C)=O)C4[C@@]21O", "note": "(stereo not given in full)", "activation": "inactive: -14.2%"}
{"molecule": "CC(C)(C)c1cc(O)ccc1O", "Potency": "active: 56.2 µM", "activation": "inactive: -17%"}
{"molecule": "COC[C@H]1OC(=O)c2coc3c2[C@@]1(C)C1=C(C3=O)[C@H]2CCC(=O)[C@@]2(C)C[C@H]1OC(C)=O", "activation": "inactive: -5.52%"}
{"molecule": "c1ccc(N2CC3(CCNCC3)C2)cc1", "activation": "inactive: -8.62%"}
{"molecule": "CCOP(=S)(OCC)Oc1nc(Cl)c(Cl)cc1Cl", "activation": "inactive: 0.282%"}
{"molecule": "C=C1C2CC[C@@]3(C)C(c4ccoc4)OC(=O)C[C@@]13OC1CC(=O)C(C)(C)C(C(OC(C)=O)C(=O)OC)[C@@]12C", "note": "(stereo not given in full)", "activation": "inactive: -6.87%"}
{"molecule": "c1ccc(N2CC[C@@]3(CCCNC3)C2)nc1", "activation": "inactive: -5.15%"}
{"molecule": "CCCN[C@@H]1CCc2c(OC)cccc2[C@@H]1C", "activation": "inactive: -6.17% and inactive: 2.28%"}
{"molecule": "c1ccc2c(c1)sc1ccccc12", "activation": "inactive: 17.5%"}
{"molecule": "CC(C)(C)CC(C)(C)c1ccc(O)cc1", "activation": "inactive: -64.7% and inactive: -60.4%"}
{"molecule": "O=P1(N(CCCl)CCCl)NCCCO1", "note": "(stereo not given)", "activation": "inactive: -6.39% and inactive: 19.5% and inactive: -56.2%"}
{"molecule": "CCC1/C=C/C=CCC(C)C(O)[C@@](C)(O)C(=O)C(C)C(O)C(C)C(=O)C(C)C(O)C(C)C=CC(=O)O[C@H]2C(C)C(CC1)O[C@]1(CCC(C)C(CC(C)O)O1)C2C", "note": "(stereo not given in full)", "activation": "inactive: -14.3%"}
{"molecule": "CCCn1c(C)c(C(=O)c2cccc3ccccc23)c2ccccc21", "activation": "inactive: -32.5%"}
{"molecule": "CNc1ccc2oc(C[C@@H]3OC4(CC[C@@H]3C)O[C@H]([C@@H](C)C(=O)c3ccc[nH]3)[C@H](C)C[C@H]4C)nc2c1C(=O)O", "note": "(stereo not given in full)", "activation": "inactive: -9.5%"}
{"molecule": "NC(=O)CS(=O)C(c1ccccc1)c1ccccc1", "note": "(stereo not given)", "activation": "inactive: -47.7% and inactive: -9.21%"}
{"molecule": "CN1C(=O)CCS(=O)(=O)C1c1ccc(Cl)cc1", "note": "(stereo not given)", "activation": "inactive: -4.64% [middle of 4 runs]"}
{"molecule": "CN(C)[C@@H]1C(=O)C(C(N)=O)=C(O)[C@@]2(O)C(=O)C3=C(O)c4c(O)cccc4[C@@](C)(O)[C@H]3[C@H](O)[C@@H]12", "activation": "inactive: 2.81% and inactive: -13.8%"}
{"molecule": "Cc1cccc(Cc2cnc[nH]2)c1C", "activation": "inactive: 5.63%"}
{"molecule": "O=C(O)[C@@H]1CCN1", "activation": "inactive: -4.93%"}
{"molecule": "O=C(NC(O)C(Cl)(Cl)Cl)NC(O)C(Cl)(Cl)Cl", "note": "(stereo not given)", "activation": "inactive: -9.26%"}
{"molecule": "C[C@](N)(CCP(=O)(O)O)C(=O)O", "activation": "inactive: -5.22%"}
{"molecule": "CC(N)C(O)c1ccc(O)c(O)c1", "note": "(stereo not given)", "activation": "inactive: -9.69% and inactive: -19.1%"}
{"molecule": "CC(=O)NC1CCSC1=O", "note": "(stereo not given)", "activation": "inactive: -8.82% and inactive: -10.4%"}
{"molecule": "CCN(CC)CCN1C(=O)CN=C(c2ccccc2F)c2cc(Cl)ccc21", "activation": "inactive: -1.68%"}
{"molecule": "C[C@]12CCC3C(CC[C@H]4C[C@@H](O)CC[C@]34C)[C@@H]1CCC2=O", "note": "(stereo not given in full)", "activation": "inactive: -4.27%"}
{"molecule": "CCCCCCCCCC(CC)c1ccc(S(=O)(=O)O)cc1", "note": "(stereo not given)", "activation": "inactive: -61% and inactive: -38.1%"}
{"molecule": "Oc1ccccc1-c1ccccc1", "activation": "inactive: -7.43%"}
{"molecule": "O=CN1CC2CC(C1)c1cccc(=O)n1C2", "note": "(stereo not given)", "activation": "inactive: 0.195%"}
{"molecule": "CNC(=O)Oc1ccccc1OC(C)C", "activation": "inactive: -5.79%"}
{"molecule": "CC(=O)O[C@@H]1CN2CCC1CC2", "activation": "inactive: -7.77%"}
{"molecule": "CN1C2CCC1CC(OC(=O)c1cc(Cl)cc(Cl)c1)C2", "note": "(stereo not given)", "activation": "inactive: 1.87%"}
{"molecule": "O=C(O)Cc1cnc[nH]1", "activation": "inactive: -8.84% and inactive: 14.8% and inactive: -45.7%"}
{"molecule": "CCOC(=O)NC(O)C(Cl)(Cl)Cl", "note": "(stereo not given)", "activation": "inactive: -1.6%"}
{"molecule": "COc1ccc(C(c2ccc(OC)cc2)C(Cl)(Cl)Cl)cc1", "activation": "inactive: -7.92% and inactive: -7.49%"}
{"molecule": "O=C(Oc1ccccc1)N1CCC2(CCCN(Cc3ccccc3)C2)CC1", "activation": "inactive: -6.92%"}
{"molecule": "COC(=O)NC(=S)Nc1ccccc1NC(=S)NC(=O)OC", "activation": "inactive: -7.7%"}
{"molecule": "CCN1C[C@]2(COC)[C@H](O)C[C@H](OC)[C@]34C1C([C@H](OC)[C@H]23)[C@]1(OC(C)=O)C2[C@@H](OC(=O)c3ccccc3)C(O)(C[C@H]24)[C@@H](OC)[C@@H]1O", "activation": "inactive: 8.74%"}
{"molecule": "CCC1(CC)C(=O)NC(=O)N(C)C1=O", "activation": "inactive: -23.5%"}
{"molecule": "COC(C)C(O)(C(=O)OC1=CCN2CC[C@H](O)[C@H]12)C(C)C", "note": "(stereo not given in full)", "activation": "inactive: -4.67%"}
{"molecule": "CCC1CN2CCC1CC2C(O)c1ccnc2ccccc12", "note": "(stereo not given)", "activation": "inactive: -0.326%"}
{"molecule": "CCCCC/C=C\\C/C=C\\C/C=C\\CCCCCCC(=O)NCCO", "activation": "inactive: -0.939%"}
{"molecule": "CCc1cc(OC)c(C[C@@H](C)N)cc1OC", "activation": "inactive: -1.7%"}
{"molecule": "O=C1C=CC(=O)C=C1", "activation": "inactive: -26.4%"}
{"molecule": "CCC(=O)O[C@](Cc1ccccc1)(c1ccccc1)[C@H](C)CN(C)C", "activation": "inactive: -28.2%"}
{"molecule": "CCOP(=S)(OCC)Oc1ccc2c(C)c(Cl)c(=O)oc2c1", "activation": "inactive: -24.7%"}
{"molecule": "CCOC(=O)[C@]12Cc3cc4c(cc3[C@H]1N(Cc1ccccc1)C(=O)c1ccccc12)OCO4", "activation": "inactive: -14.3%"}
{"molecule": "C[C@@H](Cc1cccc(C(F)(F)F)c1)NCCCc1ccccc1", "activation": "inactive: -8.13%"}
{"molecule": "CC(C)[C@]1(NC(=O)[C@@H]2C=C3c4cccc5[nH]cc(c45)C[C@H]3N(C)C2)O[C@@]2(O)C3CCCN3C(=O)[C@H](Cc3ccccc3)N2C1=O", "note": "(stereo not given in full)", "activation": "inactive: 17.9%"}
{"molecule": "O=P(O)(O)C(Cl)(Cl)P(=O)(O)O", "activation": "inactive: -33.3%"}
{"molecule": "COc1cc(C2c3cc4c(cc3C(O)C3COC(=O)C23)OCO4)cc(OC)c1O", "note": "(stereo not given)", "activation": "inactive: -5.02%"}
{"molecule": "C[C@]12C/C(=C/O)C(=O)C[C@@H]1CC[C@@H]1[C@@H]2CC[C@@]2(C)[C@H]1CC[C@]2(C)O", "activation": "inactive: -18.4%"}
{"molecule": "CC(C)=CCN1CC[C@]2(C)c3cc(O)ccc3C[C@H]1[C@H]2C", "activation": "inactive: 0.962%"}
{"molecule": "C[C@H]1CNCCc2ccc(Cl)cc21", "activation": "inactive: 3.16%"}
